# Assay results: PubChem BioAssay AID1347073 (National Center for Advancing Translational Sciences (NCATS), 2019)
# The campaign covered roughly 45,000 compounds. About 200 (0.44%) were called active. Another 7% or so got no clear call; they are omitted. Calls follow the shape of the dose curve; as a rule, active = well fitted activation curve with a large enough effect; inconclusive = small, poorly fitted or top-dose-only effect; inactive = no such curve, though single readings can be large or run the other way. Some of the results follow.
# Test: qHTS of TDP-43 Inhibitors: NCGC Sytravon Library Screen; also: 0% is about no effect; nearly all actives have a fitted effect of over 55% in size
# Conditions: yeast TDP-43 toxicity rescue, BacTiter-Glo growth, 24 h; series mostly up to 46.1 µM; growth rescue (activation): at the top concentration
# Procedure, shortened: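 TDP-43-expressing yeast, pregrown in raffinose, seeded at OD600 0.02 in galactose medium with compound for 24 hr at 30 deg C. Growth read by BacTiter-Glo luminescence, so rescue of toxicity appears as activation.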
row,SMILES,growth rescue (activation)
1,COc1ccc(/C=C(\C)c2nc(C)c(-c3ccccc3)c(=O)[nH]2)cc1,inactive: 10.6%
2,CN1C(C(=O)Nc2ncccn2)=C(O)c2ccccc2S1(=O)=O,inactive: 4.9e-05%
3,Cc1nc2c(OCC(=O)c3ccc(F)cc3)cccn2c1N(C)Cc1cccs1,inactive: 3.19%
4,CCn1c(SCC(=O)Nc2nc(-c3ccccc3)cs2)nc2c1c(=O)n(C)c(=O)n2C,inactive: 18%
5,COc1ccc(N2C(=O)C(F)(F)C2c2cccc(F)c2)cc1 (centres undefined),inactive: 16.3%
6,Cc1ccc(C(O)c2ncc(-c3cccc(F)c3)[nH]2)cc1 (centres undefined),inactive: 11.6%
7,O=C(O)COc1ccccc1/C=N/NC(=O)/C(=C\c1ccc2c(c1)OCO2)NC(=O)c1ccccc1,inactive: -3.6%
8,O=C(N/N=C/c1ccc2c(c1)OCO2)c1cccc2ccccc12,inactive: 10.7%
9,COc1ccc(/C=C/C(=O)NCCc2ccc(S(N)(=O)=O)cc2)cc1,inactive: 24%
10,CCOc1ccccc1C(=O)N[C@H](C(=O)Nc1cc(S(=O)(=O)N(C)C)ccc1OC)C(C)C,inactive: 4.62%
11,COCCNC(=O)c1ccc2c(c1)CCN2S(C)(=O)=O,inactive: -0.421%
12,Cc1cccc(NC(=O)CSc2nnc(CNC(=O)c3ccco3)n2C)c1C,inactive: 0.507%
13,O=C(NCCCNC(=O)c1ccccc1F)c1ccco1,inactive: -2.34%
14,CSc1ncccc1C(=O)Nc1ccc(S(=O)(=O)NC2=NCCCCC2)cc1,inactive: 4.04%
15,COC(=O)/C(C#N)=C/c1c(Oc2cccc(C)c2)nc2ccccn2c1=O,inactive: 12.5%
16,Cc1nc(SCC(=O)NCCc2ccccc2)nc(C)c1C,inactive: -23.1%
17,CC(=O)N1CCN(c2ccc([N+](=O)[O-])cc2)CC1,inactive: 16.5%
18,Clc1cccc(-c2cccc3nccn23)c1,inactive: 1.14%
19,Cc1ccc(-c2cnc(C(O)c3ccc(Cl)c(F)c3)[nH]2)cc1 (centres undefined),inactive: 16.8%
20,COc1ccccc1C(=O)NCC(=O)Nc1ccc2c(c1)OCO2,inactive: 20.1%
21,O=C(NCCCCNC(=O)C(F)(F)F)C(F)(F)F,inactive: -1.49%
22,O=C(CNc1ccc(Br)cc1)c1ccc(Br)s1,inactive: 29.7%
23,CC(=O)c1c(C)nc(-c2ccc3c(c2)OCO3)n1O,inactive: 16.2%

row,SMILES,growth rescue (activation)
1,CCOc1nc(NC(=O)NS(=O)(=O)Oc2cccc(Cl)c2)nc(-c2ccccc2)n1,inactive: -2.33%
2,O=C(Oc1ccc2c(c1)O/C(=C\c1ccncc1)C2=O)c1cccs1,inactive: -7.8%
3,COC(=O)C1=CNC=C(C(=O)OC)C1c1cccc2ccccc12,inactive: 3.25%
4,CCc1ccc(S(=O)(=O)/N=C2/C=C(Sc3ncn[nH]3)C(=O)c3ccccc32)cc1,inactive: -92.5%
5,Cc1ccc(C)c(NC(=O)COC(=O)CCCN=C2NS(=O)(=O)c3ccccc32)c1,inactive: 1.97%
6,Cc1cccc(NC(=O)Cn2c(=O)oc3ccccc32)c1C,inactive: 3.2%
7,O=Cc1cn(CCC(=O)O)nc1-c1cccc2ccccc12,inactive: 23%
8,COc1ccccc1N1CCN(C(=O)c2ccc(N(C)S(=O)(=O)c3ccccc3)cc2)CC1,inactive: 16.9%
9,CC(=O)Oc1ccc(/C=N/NS(=O)(=O)c2ccccc2)cc1,inactive: 33.7%
10,COc1ccc(N2CC(C(=O)Nc3ccc(S(=O)(=O)N4CCOCC4)cc3)CC2=O)cc1 (centres undefined),inactive: 8.19%
11,NC(=O)NC(=O)COC(=O)c1ccc(Cl)c(S(=O)(=O)N(Cc2ccccc2)c2ccc(Cl)cc2)c1,inactive: 17.8%
12,COc1ccc(C2=NC3(CCCCCC3)N(CC(=O)Nc3cccc(Cl)c3)C2=O)cc1,inactive: 1.94%
13,COc1ccc(CNC(=O)C23CC4CC(CC(Br)(C4)C2)C3)cc1,inactive: 5.43%
14,CCCC(c1nnnn1Cc1ccc(F)cc1)N1CCN(C)CC1 (centres undefined),inactive: 11.2%
15,Cc1cccc(NC(=O)/C(=C\c2ccc([N+](=O)[O-])o2)NC(=O)c2ccc(Cl)cc2)c1,inactive: 16.7%
16,Cc1onc(-c2c(F)cccc2Cl)c1C(=O)OCC(=O)c1c[nH]c2ccccc12,inactive: 6.83%
17,Cc1ccnc(SCc2ccc([N+](=O)[O-])cc2)n1,inactive: 38.8%
18,CCn1ncc(-c2ccnc3cc(C(=O)O)nn23)c1C,inactive: 11.5%
19,O=C(C1CCN(S(=O)(=O)c2c(Cl)cccc2Cl)CC1)N1CCCC1,inactive: 0.368%
20,COc1cccc(CCC(=O)O)c1OC,inactive: 15.2%
21,Cc1cc(NC(=O)C23CC4CC(CC(C4)C2)C3)n[nH]1,inactive: 17.8%
22,Cc1ccc(S(=O)(=O)N2CCN(CC(=O)Nc3ccccc3C(=O)NC3CC3)CC2)cc1,inactive: 21.5%
23,CN(C)CCNC(=O)c1cccc(-c2cccc3nccn23)c1,inactive: 3.36%

row,SMILES,growth rescue (activation)
1,N#Cc1ccc(/C=C2\CCCCn3c2nc2cc(C(=O)O)ccc2c3=O)cc1,inactive: -3.96%
2,CN(C)S(=O)(=O)c1ccc(NC(=O)CN2CCN(c3ccccn3)CC2)cc1,inactive: -1.86%
3,CCn1c(SCC(=O)Nc2nc(C)cs2)nnc1-c1ccncc1,inactive: 16.7%
4,CC(=O)Nc1ccccc1OCC(=O)NCCC1=CCCCC1,inactive: 1.97%
5,CNC(=S)Nc1cccc(C(=O)O)c1,inactive: -2.77%
6,Cc1ccc(-c2c3c(=O)n(C)c(=O)n(C)c3cn2-n2cnnc2)cc1,inactive: -0.44%
7,O=c1c2c(nc3cc(-c4ccc(Cl)cc4)[nH]n13)CCS2,inactive: 6.35%
8,CCn1c(SCc2ccccc2)nnc1C1CCCCC1,inactive: 34%
9,CCOC(=O)c1c(/N=C/N(C)C)sc(/C=N/Nc2ccccc2)c1-c1ccccc1Cl,inactive: 5.28%
10,CCOC(=O)C(NC(=O)c1ccccc1F)(Nc1cc(C)on1)C(F)(F)F (centres undefined),inactive: 7.58%
11,Cc1ccc(C2=NN(CC(=O)NCc3ccco3)C(=O)CC2)cc1,inactive: 23.5%
12,CC(C)CNC(=S)N1CCC(NC(=O)c2ccco2)CC1,inactive: 10.5%
13,COc1ccccc1NC(=O)Cc1nnc(SCC(=O)NC2=NCCS2)n1C,inactive: -14.7%
14,COC(=O)c1ccc(CN(c2ccccc2Cl)S(C)(=O)=O)cc1,inactive: 29.1%
15,CN(C)S(=O)(=O)c1ccc(NC(=O)Cn2nc(-c3ccc4c(c3)OCCO4)ccc2=O)cc1,inactive: 8.76%
16,Cc1cc(C)cc(OCCNC(=O)C2CCN(S(=O)(=O)c3ccccc3)CC2)c1,inactive: 7.51%
17,COc1cc(NC(=O)C2(C)CCCN2C(=O)C(C)C)cc(OC)c1OC (centres undefined),inactive: 5.38%
18,COc1ccc(C(=O)NNC(=O)CSc2nnc(C(C)C)n2C)cc1,inactive: -5.87%
19,COc1ccc2c(CC#N)c[nH]c2c1,inactive: 17.6%
20,CCC1CCCCN1C(=O)c1cc2c(=O)n3cccc(C)c3nc2s1 (centres undefined),inactive: -1.46%
21,O=C(NS(=O)(=O)Oc1ccc(Cl)cc1)OC[C@@H]1CCCN2CCCC[C@H]12,inactive: 23.5%
22,Cc1ccccc1C(=O)Nc1ccccc1N1CCCCC1,inactive: 23.3%
23,COc1cc(C2C(C#N)=C(C)NC3=C2C(=O)CC(C)(C)C3)ccc1OCCO (centres undefined),inactive: 14.6%
